Results reported in patent publication US11312685B2, “Targeting nanoparticles” (Texas Children's Hosptial, priority 2017, dated 2022).
Where two headings read alike, the source gives them in different places.

Columns and labels:
integrin α4β1 [1] = target: T1, integrin α4β1 (Homo sapiens, UniProt P05556+P13612); test: K562(α4β1) cell adhesion to CS-1; format: cell-based; set-up: expressed in transfected cells; host or cells: K562 cells engineered to over-express integrin α4β1
integrin α4β1 [2] = target: T1, integrin α4β1; conditions: Activity (IC50), K562(α4β1), VCAM-1, Mn (high affinity)
integrin α4β1 [3] = target: T1, integrin α4β1; test: Competition of Gd567 liposome binding to α4β1-K562 cells by free targeting ligand; set-up: expressed in transfected cells; host or cells: K562 cells engineered to over-express integrin α4β1; conditions: α4β1 expressing K562 cells; highest doses of competitor
Excerpt: THI567-targeted liposome (150 nm; 1.0%) was used at a concentration of 2×10^−10 pM, and THI565 was used at indicated concentrations. Rhodamine fluorescence was detected by flow cytometry.
Particle size is a critical component for acceptable functionality and pharmacokinetics of the liposome in vivo. In an embodiment, the particle size is between 50 and 400 nm. In an embodiment, the particle size is between 85 and 200 nm. In another embodiment, different liposome sizes were developed (250 nm, 150 nm, and 100 nm). Lissamine rhodamine B was incorporated into the liposomes for fluorescence detection, and Gd was incorporated into liposome for MRI-based imaging. Liposomes were termed “Gd567” (size nm; % targeted ligand). Table 2 also describes liposome binding constants as measured by their binding to α4β1 expressing K562 cells (measured by flow cytometry). Binding constants are expressed as the molar particle concentration. Binding specificity of liposomes was determined by a number of different means. These include competition with free targeting ligand (FIG. 3), where excess THI565 was used to compete binding of Gd567 (150 nm; 1.0%) liposome to integrin α4β1 expressing K562 cells.

IC50 (integrin α4β1 [1]; Ca/Mg): 7940 pM
IC50 (integrin α4β1 [1]; Mn): 320 pM
IC50 (integrin α4β1 [2]): 467 pM
inhibition of Gd567 (150 nm; 1.0%) liposome binding (integrin α4β1 [3]): Complete inhibition
SMILES: Cc1cn(Cc2c(Cl)cccc2OCCO)c(=O)c(NC(=O)N[C@@H](CC(=O)O)c2cccc(OCCO)c2)c1O [THI565]
